Two compounds from PubChem BioAssay (NCI) can be followed below.

Some test systems named below: A498 renal; COLO 205 colon; EKVX NSCLC; HOP-92 NSCLC; HS 578T breast; IGROV1 ovarian; MALME-3M melanoma; NCI-H226 lung; NCI-H522 lung; OVCAR-3 ovarian; SK-MEL-28 melanoma; SK-OV-3 ovarian; T-47D breast; UACC-257 melanoma; UACC-62 melanoma; CAKI-1 renal; HOP-62 NSCLC; OVCAR-8 ovarian; RPMI-8226 leukemia; SF-295 CNS; SNB-75 CNS; U251 CNS.
What all share (assay): inhibition of tumour cell growth, NCI panel, 48 h

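Dose response: 5 concentrations. Exposure: 48 h. Format: 96-well plates. Endpoint: linear interpolation; highest concentration if not reached. At the GI50, growth is halved.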 The source holds more than one record for some entries. Only these are listed. There may be further records. For some of these results: Records of one sample usually come from different ranges of test concentrations, which the source does not state; a value can be the end of its range. For some of these results: Values given together repeat one measurement in other runs, samples, wells, individuals or studies. Marks in square brackets tell the records apart. Letters count within one entry.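 At the TGI there is no net growth.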 Some results are limits rather than exact numbers.

Consider `COc1cc(Nc2nc3ccccc3nc2NS(=O)(=O)c2ccc(NC(=O)c3ccc(C)c(OC)c3)cc2)cc(OC)c1`, for which the GI50 was 3.46 µM [sample A, 1 test] and 7.23 µM [sample B, 1 test] and 255 nM [sample C, mean of 2 tests] in the test with A498 renal; 3.4 µM [sample A, 1 test] and 1.3 µM [sample B, 1 test] and 174 nM [sample C, mean of 2 tests] in the test on HOP-92 NSCLC; 1.8 µM [sample A, 1 test] and 9.55 µM [sample B, 1 test] and 323 nM [sample C, mean of 2 tests] in the test on IGROV1 ovarian; 2.89 µM [sample A, 1 test] and 13.6 µM [sample B, 1 test] and 424 nM [sample C, mean of 2 tests] in the test with T-47D breast; 3.37 µM [sample A, 1 test] and 12 µM [sample B, 1 test] and 306 nM [sample C, mean of 2 tests] in the test with UACC-62 melanoma. Besides, the TGI with A498 renal was 33.5 µM [sample A, 1 test] and 37.2 µM [sample B, 1 test] and 1.19 µM [sample C, mean of 2 tests]; in the test with COLO 205 colon, > 100 µM [sample A, 1 test] and 33.3 µM [sample B, 1 test] and 5.79 µM [sample C, mean of 2 tests]; with EKVX NSCLC, > 100 µM [sample A, 1 test] and 7.89 µM [sample B, mean of 2 tests]; with HOP-92 NSCLC it was 23 µM [sample A, 1 test] and 9.59 µM [sample B, 1 test] and 1.85 µM [sample C, mean of 2 tests]; in the test on HS 578T breast, 49.1 µM [sample A, 1 test] and 88.6 µM [sample B, 1 test] and 4.78 µM [sample C, mean of 2 tests]; in the test with IGROV1 ovarian, 11.2 µM [sample A, 1 test] and 52.3 µM [sample B, 1 test] and 1.86 µM [sample C, mean of 2 tests]. Besides, the TGI in the test with MALME-3M melanoma is 43.3 µM [sample A, 1 test] and 66 µM [sample B, 1 test] and 2.48 µM [sample C, mean of 2 tests]; in the test with NCI-H226 lung, 93 µM [sample A, 1 test] and > 100 µM [sample B, 1 test] and 7.32 µM [sample C, mean of 2 tests]; with NCI-H522 lung, 75 µM [sample A, 1 test] and 62.8 µM [sample B, 1 test] and 5.3 µM [sample C, mean of 2 tests]; with OVCAR-3 ovarian, > 100 µM [sample A, 1 test] and > 100 µM [sample B, 1 test] and 8.37 µM [sample C, mean of 2 tests]; in the test on SK-MEL-28 melanoma, > 100 µM [sample A, 1 test] and > 100 µM [sample B, 1 test] and 3.31 µM [sample C, mean of 2 tests]; in the test on SK-OV-3 ovarian, 95.5 µM [sample A, 1 test] and 4.78 µM [sample B, mean of 2 tests]. Moreover, the TGI is > 100 µM [sample A, 1 test] and > 100 µM [sample B, 1 test] and 1.9 µM [sample C, mean of 2 tests] in the test with T-47D breast; > 100 µM [sample A, 1 test] and 74.3 µM [sample B, 1 test] and 5.47 µM [sample C, mean of 2 tests] with UACC-257 melanoma; 28.1 µM [sample A, 1 test] and 32.1 µM [sample B, 1 test] and 2.29 µM [sample C, mean of 2 tests] in the test on UACC-62 melanoma.

Turning to `C[C@]12CC[C@H](OC3OC(CO)C(O)C(O)C3O)C[C@H]1CC[C@@H]1[C@@H]2CC[C@]2(C)[C@@H](C3=CCOC3=O)CC[C@]12O` (stereo partly specified), the GI50 was > 100 µM, 5.24 µM [1 test] and 45.2 nM [mean of 3 tests] in the test on CAKI-1 renal; > 100 µM and 3.06 µM in the test on HOP-62 NSCLC; > 100 µM, 50.6 µM [1 test] and 3.74 µM [mean of 3 tests] in the test on NCI-H226 lung; > 100 µM [1 test] and 2.65 µM [mean of 4 tests] in the test with OVCAR-8 ovarian; > 100 µM [1 test] and 8.48 µM [mean of 3 tests] in the test on RPMI-8226 leukemia; > 100 µM and 4.1 µM in the test on SF-295 CNS. Moreover, the GI50 in the test on SNB-75 CNS was > 100 µM and 3.54 µM; in the test on U251 CNS, > 100 µM and 3.84 µM; with UACC-62 melanoma, > 100 µM and 1.08 µM. For the same compound, the TGI in the test on CAKI-1 renal was > 100 µM [1 test] and 871 nM [mean of 3 tests]; in the test with OVCAR-8 ovarian, > 100 µM [1 test] and 5 µM [mean of 4 tests].
